Whole data set: some 4,500 sequences, median “median log2 fold change of GCK-ALFA target abundance (FLAG IP / Myc IP barcode read proportion)” near 0.078, cut for the lowest 2% near -0.6. Some of the results follow.
B1: GBRAP_74_6505 (protein)
chain: SEEMLKKLEEAIKKGDLLKAAKITIEILKNGSKEDAKKAMELLAKAVKENYEKVDLETAEAALEAIVLAESKFEEEEFTDEMLELLKLVTEKLLELEKKK
B2: GBRAP_11_2878 (protein)
chain: KKEKLLEIAELAEKLAELIEKLLKEGVDNEELLKEAEEQLKKLKELVEKHANEALKKLAKILEEEWKKMLEDKENAEEHAKRALAIARVLAGDARLEAEE
B3: GBRAP_39_5630 (protein)
chain: EEEEELELLESLAEADLAKREVETGLPAEELYAELLARAREAAADDPELLALIERLAALAEEHGPEARERLAAAMAAYLAGLPKEDIKRLLTALIEELEA
B4: GBRAP_128_3263 (protein)
chain: MNEEVVAYANSVVEQIKNSDKATAQKIADEFMEWLLNSSLEDAEQAVDVVISNLSKLTAEQLDILADAARKHRPKATPEKANLLADLEVEALNEALEKEE
B5: GBRAP_14_3818 (protein)
chain: MEELKAKIKEVLEELREELVEDIGLDEEEVTELIDRALAEIFAALDDPEGAEERVQEIFDRLRKEIEALAAKLGEDEAAAARALVVDAEYEVDELIEEAK
B6: GBRAP_96_7090 (protein)
chain: MLEEVKELVRGFLEALNTDPEKARELAKELLKYPPELVAKAMKELGVSDEEAVALFEVLYEEDPSKAAEWIEALTEIVSSEAVVRMVEVAIELERAREAA
B7: GBRAP_83_6933 (protein)
chain: AEKITVVANSDTLEEAFKIAIDLHKEEGKEVILEVSITREDIPKLLKEFEKVAKAGVNIELEILLTGATEEEAKELKEKLLAIAKKYGVKAKVTVELVEP
B8: GBRAP_26_5494 (protein)
chain: MVEEILAELRARIREILADESPELQAAVIAEAEDLLLEAHEYFEENLDDEEAQEKAIEEAVEEMREFLEDMGLSEEKIEKITEALREAMERILEALQKER
B9: GBRAP_83_6963 (protein)
chain: MEEVVVVTTKDHVESAADAAYDLATEEGKKVTVVLLGKPEEVLESAEIVAKKLKDIKNVEIEAVVENVRKEEAEKTKKKLKEIGEKYGLKIKFEAELIEE
B10: GBRAP_166_4926 (protein)
chain: SMEEKVEEAKERLKKVIEEGKADPSKTKAEITVDLAYETAKILEEEDDKETKLEIVRAALKLAKEAGLDPERLATLTASLAGFDDEEIEEIDKIVEEILK
B11: GBRAP_80_6767 (protein)
chain: MEEKIKKKIEEIEKIDKEIAEVLKKAVEVAKELGISEEDILEFVEAILELAKIDKEKALEITKEGLKALEEAKKEGDKERAKAELAGFISDALLEVEELE
B12: GBRAP_35_5519 (protein)
chain: SSEELEVEMLVATIEDLTLAVPDMPVEQAAQIANQLIEHAKRLAEDVKDNVEALKRLRDALERLRDALEKHYGDNPLAQEVIARIDELIAYIDKLIEEAE
B13: GBRAP_52_6216 (protein)
chain: MEEEIEKVAKEIAEALIAGDEKKLIELVKEAKEKFNLEELEKIAALMGRILAERLKGDEERIVELIDRFEEAALKAGLSEDDALALEGAAEAAAIKTLLA
B14: GBRAP_80_6804 (protein)
chain: AEAELAAALAEIAALDPELAERVRRIIERARALGVPLETLAEYARAVAALLKVDPERARELVEELEEELAEEAAAGDTANAEATLRVYAGDALLEVEELE
B15: GBRAP_184_5309 (protein)
chain: TVLRREIEADNAEEAIAQIRAAAAEARAAGARLELDLYLSNVDVEGARRIFALLAALRAEGVLAAATVAVLDERTEEEVDELVALADEAGVRLVVALSDE
B16: GBRAP_96_7099 (protein)
chain: MLEEAEELVRKLLEALDTDPELAKKLAKELLEFPVEVVVEALVKEVKTPEEAYKVTSILLSLGDPKAEEVALEFAEKSDGDRSKAIIEAMKEYEKEKEAA
B17: GBRAP_160_4076 (protein)
chain: MEEVEELEKEIKEIAEEAIKFIEESDEENQIAIIRMMAGDILLLVFEAPFISDEDEEEIDEILDEYVKKFEENKDWSIEEKKELIKEMAEKVIEKVKKAA
B18: GBRAP_52_6239 (protein)
chain: MAARMRAAAERILALVRAGDEAGARALAEELAATLDEEEARLFIREFAALAARQPAADIDAVWRAAEIVAEALEAAGWPEVLVDDLEAAVAAALVAVEAA
B19: GBRAP_11_2789 (protein)
chain: KKEKLKELARKLEEAAKLLEQLLASSPDDEELWKELERKLEEAKKLAKEAGLEDVAELLEYAIELVKKAKADPANRQQYLTEALAFVRVAKGLVLLEIEE

Molecular target: GABARAP, O95166
Sequence (O95166 whole entry, the tested form may be a part): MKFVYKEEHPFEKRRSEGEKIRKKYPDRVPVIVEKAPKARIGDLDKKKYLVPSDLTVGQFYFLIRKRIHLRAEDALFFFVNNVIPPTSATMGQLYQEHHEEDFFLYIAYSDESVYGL
Assay: median log2 fold change of GCK-ALFA target abundance (FLAG IP / Myc IP barcode read proportion) (log2 ratio); each designed protein is fused to an ALFA-tag nanobody in HEK293 cells to bring the named protein to FLAG-tagged glucokinase (GCK); Myc marks an untargeted standard; higher = target protein stabilised (more abundant)
Details: target protein: 3xFLAG-MCP-GCK-ALFA reporter; HEK293 landing pad (RPLP)
Outline: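 Sequencing of reverse-transcribed, amplified circular RNA barcodes from anti-FLAG and anti-Myc immunoprecipitates provided the readout for an ALFA-nanobody-fused binder library recombined into HEK293 landing-pad cells. Those cells were induced with 2 μg mL^−1 doxycycline, transfected with a plasmid expressing a FLAG-tagged target and a Myc-tagged standard, and lysed after 48 h. Target abundance is the per-binder median log2 ratio of FLAG to Myc barcode read proportions. Only barcodes at a proportion of ≥10^−7 in both replicates and binders with ≥3 barcodes per replicate were kept, with a 10^−6 pseudocount added before the two replicates were pooled.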

Binder | median log2 fold change
B1 | 0.0468
B2 | 0.36
B3 | 0.159
B4 | 0.00415
B5 | -0.0751
B6 | 0.0668
B7 | 0.179
B8 | -0.225
B9 | 0.0181
B10 | 0.0535
B11 | 0.229
B12 | 0.118
B13 | 0.049
B14 | -0.231
B15 | -0.372
B16 | 0.12
B17 | -0.449
B18 | -0.504
B19 | 0.0274
